Reference: publication PMC4336329 (PLoS ONE, 2015)
Among all 310,000 compounds or so, about 14,000 (4.5%) showed an effect of 50% or more. Effects have a minus sign here. This is one part of the list.

Target: human ether-à-go-go-related gene (hERG) potassium channel (human, UniProt Q12809)
Assay: primary screen, population patch clamp on CHO cells stably expressing hERG
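Further: peak tail current of the secondary pulse compared with the same well before compound.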

Chain of human ether-à-go-go-related gene (hERG) potassium channel (Q12809 whole entry, looked up): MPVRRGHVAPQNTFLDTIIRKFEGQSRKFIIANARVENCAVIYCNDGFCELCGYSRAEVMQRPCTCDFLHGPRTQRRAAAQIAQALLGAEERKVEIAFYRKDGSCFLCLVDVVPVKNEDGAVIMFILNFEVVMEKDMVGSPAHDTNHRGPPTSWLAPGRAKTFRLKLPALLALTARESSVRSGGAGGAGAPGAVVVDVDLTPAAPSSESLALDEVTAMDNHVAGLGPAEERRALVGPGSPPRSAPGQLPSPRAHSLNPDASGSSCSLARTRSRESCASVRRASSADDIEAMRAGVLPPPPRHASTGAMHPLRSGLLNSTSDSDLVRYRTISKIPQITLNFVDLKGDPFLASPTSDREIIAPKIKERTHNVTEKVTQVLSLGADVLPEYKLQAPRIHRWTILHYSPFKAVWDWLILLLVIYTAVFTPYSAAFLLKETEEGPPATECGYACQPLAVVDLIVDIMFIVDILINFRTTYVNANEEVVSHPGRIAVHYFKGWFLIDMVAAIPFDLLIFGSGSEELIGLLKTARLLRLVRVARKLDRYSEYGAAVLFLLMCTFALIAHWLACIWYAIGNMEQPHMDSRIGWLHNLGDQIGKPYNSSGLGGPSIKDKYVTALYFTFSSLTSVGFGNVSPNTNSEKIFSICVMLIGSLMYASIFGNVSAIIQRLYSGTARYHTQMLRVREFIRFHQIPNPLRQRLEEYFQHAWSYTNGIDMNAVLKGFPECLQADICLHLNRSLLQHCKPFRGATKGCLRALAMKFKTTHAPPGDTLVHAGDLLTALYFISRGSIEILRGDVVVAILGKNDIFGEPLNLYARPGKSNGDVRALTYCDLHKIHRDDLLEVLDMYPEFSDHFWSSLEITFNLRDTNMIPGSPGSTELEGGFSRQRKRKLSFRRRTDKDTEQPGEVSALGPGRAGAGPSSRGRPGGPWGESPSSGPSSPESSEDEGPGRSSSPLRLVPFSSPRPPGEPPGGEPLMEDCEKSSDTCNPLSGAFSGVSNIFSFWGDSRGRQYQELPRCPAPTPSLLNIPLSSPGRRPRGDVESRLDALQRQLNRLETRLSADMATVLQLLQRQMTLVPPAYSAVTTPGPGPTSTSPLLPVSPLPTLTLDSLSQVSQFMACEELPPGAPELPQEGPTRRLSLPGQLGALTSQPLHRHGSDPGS

| Structure (SMILES) | hERG current change (%, negative = inhibition) at 10uM [%] |
| --- | --- |
| CCCCN(C(=O)c1oc2ccc(OCC)cc2c1C)c1c(N)n(CC(C)C)c(=O)[nH]c1=O | 20.7 |
| Cc1ccc(N2CN(Cc3ccco3)CNC2=S)cc1 | 10.9 |
| Cn1cnnc1SCC(=O)Nc1cccc(S(=O)(=O)N2CCOCC2)c1 | -27 |
| COc1ccccc1C(=O)Nc1ccccc1C(=O)NCc1ccco1 | -3.93 |
| CCOc1ccccc1NC(=S)N1CCCc2ccccc21 | -7.67 |
| Cc1ccc(CNC(=O)CCCC(=O)O)cc1 | 3.31 |
| CC(=O)Nc1ccc(S(=O)(=O)N2CCN(C(C)CCc3ccccc3)CC2)cc1 (stereo not shown) | -38 |
| O=C(Nc1ccc(Cl)cc1)c1ccc(Br)cc1F | 14.4 |
| CC1CCN(CCOc2ccc(Cl)c(Cl)c2)CC1 | -46.3 |
| COc1ccccc1C(=O)NC1CCN(C(=O)Nc2ccc(C)cc2)CC1 | 5.62 |
| CCOc1c2ccc(C(=O)NCc3ccc4c(c3)OCO4)cc2nn1CCOC | 0.525 |
| OC(CN1CCN(c2cccc(C(F)(F)F)c2)CC1)c1c[nH]c2ccccc12 (stereo not shown) | 7.32 |
| COc1ccc(Cl)cc1NC(=O)CCN1CCOCC1 | -4.1 |
| Cc1cc(C)cc(N(CCC#N)C(=O)COC(=O)CN2C(=O)NC(C)(C)C2=O)c1 | 19.6 |
| CC(C)(C)C#CCn1c(/C=[N+](\[O-])C2CCCCC2)nc2ccccc21 | -25.7 |
| COCCn1c(-c2ccc(Cl)cc2)nc2oc3cc(OC)ccc3c(=O)c2c1=O | -20.8 |
| COc1ccc(NC(=O)CS(=O)CC(=O)Nc2cc(Cl)ccc2OC)cc1 (stereo not shown) | -2.03 |
| COc1ccc(S(=O)(=O)N2CCOCC2)cc1Cl | -14.3 |
| Cc1cc(C)c(C)c(S(=O)(=O)N2CCC(C(=O)Nc3ccc(S(=O)(=O)N4CCOCC4)cc3)CC2)c1C | 15.1 |
| COc1cc(C2NC(=S)NC(O)(C(F)(F)F)C2C(=O)c2cccs2)cc(OC)c1O (stereo not shown) | 27.5 |
| CCNC(=O)NC(=O)COC(=O)c1cccc(NS(=O)(=O)/C=C/c2ccccc2)c1 | 9.96 |
| Cc1cccn2cc(CNc3ccccc3)nc12 | -4.15 |
| O=C1CCCc2cc(S(=O)(=O)N3CCC(C(=O)NCc4ccccc4)CC3)ccc2N1 | -0.41 |
| O=C(c1cnn(-c2ccccc2)c1)c1ccccc1O | 5.04 |
| COc1cccc(N=Nc2c(C)[nH]n(-c3ccccc3)c2=O)c1 | 10.1 |
